# Test results as given in a collection of fitness landscapes (doi:10.1126/science.1257360).
# Some of the results follow.
# B1: PhoQ; a variant is named by its letters at X, in order, P23837 (parent)
# chain: MKKLLRLFFPLSLRVRFLLATAAVVLVLSLAYGMVALIGYSVSFDKTTFRLLRGESNLFYTLAKWENNKLHVELPENIDKQSPTMTLIYDENGQLLWAQRDVPWLMKMIQPDWLKSNGFHEIEADVNDTSLLLSGDHSIQQQLQEVREDDDDAEMTHSVAVNVYPATSRMPKLTIVVVDTIPVELKSSYMVWSWFIYVLSANLLLVIPLLWVAAWWSLRPIEALAKEVRELEEHNRELLNPATTRELTSLVRNLNRLLKSERERYDKYRTTLTDLTHSLKTPLXXLQXXLRSLRSEKMSVSDAEPVMLEQISRISQQIGYYLHRASMRGGTLLSRELHPVAPLLDNLTSALNKVYQRKGVNISLDISPEISFVGEQNDFVEVMGNVLDNACKYCLEFVEISARQTDEHLYIVVEDDGPGIPLSKREVIFDRGQRVDTLRPGQGVGLAVAREITEQYEGKIVAGESMLGGARMEVIFGRQHSAPKDE
# Variants of: B1
# Experiment: enrichment ratio after two sorts for PhoP signalling (ratio (wild type AVST 3.29)); higher = more functional
# Details: with PhoP (E. coli)
row,Variant,enrichment ratio
1,QFYP,≤ 0.25
2,PYAT,≤ 0.25
3,EDII,≤ 0.25
4,ASST,6.26
5,IGVR,≤ 0.25
6,ECGK,≤ 0.25
7,SDWV,≤ 0.25
8,KNDF,≤ 0.25
9,MQKI,≤ 0.25
10,FFPQ,≤ 0.25
11,MQVV,≤ 0.25
12,VGQK,≤ 0.25
13,FCNN,≤ 0.25
14,GFTQ,≤ 0.25
15,LYVK,≤ 0.25
16,KIHK,≤ 0.25
17,SDPC,≤ 0.25
18,DNPC,≤ 0.25
19,EAVP,≤ 0.25
20,GITH,≤ 0.25
21,TPKH,≤ 0.25
22,HEEY,≤ 0.25
23,IASI,≤ 0.25
24,WKCE,≤ 0.25

row,Variant,enrichment ratio
1,MAAG,5.39
2,TKKR,≤ 0.25
3,YEWY,≤ 0.25
4,IPDT,≤ 0.25
5,FNRH,≤ 0.25
6,NYDC,≤ 0.25
7,PNKH,≤ 0.25
8,PQIF,≤ 0.25
9,KNYR,≤ 0.25
10,WGFF,≤ 0.25
11,LCKW,≤ 0.25
12,NLWG,≤ 0.25
13,SMII,2.88
14,SQDI,≤ 0.25
15,FQIE,≤ 0.25
16,WTGH,≤ 0.25
17,TVTQ,1.59
18,QYTN,≤ 0.25
19,MMMD,≤ 0.25
20,SCLK,7.46
21,QHIH,≤ 0.25
22,LWRL,≤ 0.25
23,KQFS,≤ 0.25
24,DNYK,≤ 0.25

row,Variant,enrichment ratio
1,MQKE,≤ 0.25
2,YVEL,≤ 0.25
3,HFLR,≤ 0.25
4,RARS,≤ 0.25
5,NEHY,≤ 0.25
6,PCIC,≤ 0.25
7,ISTF,≤ 0.25
8,HGAF,≤ 0.25
9,TNHV,≤ 0.25
10,PYDF,≤ 0.25
11,IWQG,≤ 0.25
12,HPPI,≤ 0.25
13,KPYK,≤ 0.25
14,MVLL,7.33
15,PDGA,≤ 0.25
16,PMVN,≤ 0.25
17,IVGP,≤ 0.25
18,TEVS,8.74
19,KTNM,≤ 0.25
20,SEHI,≤ 0.25
21,VEQS,≤ 0.25
22,SNKR,≤ 0.25
23,NRVD,≤ 0.25
24,LLFL,≤ 0.25

row,Variant,enrichment ratio
1,VEQV,≤ 0.25
2,RQGL,≤ 0.25
3,QRTR,≤ 0.25
4,ELPQ,≤ 0.25
5,FHQK,≤ 0.25
6,RIKE,1.35
7,KVAH,≤ 0.25
8,RSGS,≤ 0.25
9,AGTC,3.5
10,EAFS,≤ 0.25
11,WTMS,≤ 0.25
12,LYEM,≤ 0.25
13,AHEL,≤ 0.25
14,GQGT,≤ 0.25
15,PLFI,≤ 0.25
16,SDDL,≤ 0.25
17,THGQ,≤ 0.25
18,HSIM,7.28
19,DWHV,≤ 0.25
20,EIWQ,≤ 0.25
21,VVPH,≤ 0.25
22,GDIY,≤ 0.25
23,KVRC,≤ 0.25
24,QFPS,≤ 0.25

row,Variant,enrichment ratio
1,SGRE,≤ 0.25
2,DSFI,≤ 0.25
3,YIQL,0.395
4,NHTL,0.608
5,TVWE,≤ 0.25
6,MIAY,≤ 0.25
7,KLVD,≤ 0.25
8,WWQS,≤ 0.25
9,EMFV,≤ 0.25
10,SEQL,3.66
11,NMNR,≤ 0.25
12,HDSR,≤ 0.25
13,QNWI,≤ 0.25
14,HHAP,≤ 0.25
15,AQRR,≤ 0.25
16,TRIA,≤ 0.25
17,RCLH,≤ 0.25
18,YIWN,≤ 0.25
19,HDCA,≤ 0.25
20,AISM,15.9
21,KNCP,≤ 0.25
22,HFDK,≤ 0.25
23,WDDK,≤ 0.25
24,GEIG,≤ 0.25

row,Variant,enrichment ratio
1,QVCN,≤ 0.25
2,HKEP,≤ 0.25
3,ESKP,≤ 0.25
4,IPIG,≤ 0.25
5,FQFN,≤ 0.25
6,MRLP,≤ 0.25
7,GPWH,≤ 0.25
8,SPMC,≤ 0.25
9,KQAT,≤ 0.25
10,KMGP,≤ 0.25
11,KRHL,≤ 0.25
12,YVAP,≤ 0.25
13,GDQF,≤ 0.25
14,WCFL,≤ 0.25
15,MGMF,≤ 0.25
16,GIMA,7.88
17,THNA,5.83
18,IWYV,≤ 0.25
19,QIIQ,≤ 0.25
20,LAND,≤ 0.25
21,TQDQ,≤ 0.25
22,SDYL,≤ 0.25
23,TMFD,≤ 0.25
24,QMYM,≤ 0.25

row,Variant,enrichment ratio
1,ISGV,≤ 0.25
2,QHNH,13.9
3,EKSS,≤ 0.25
4,QAHT,≤ 0.25
5,HNVH,≤ 0.25
6,IGWQ,≤ 0.25
7,LRAT,≤ 0.25
8,ANCF,6.31
9,TVQT,3.76
10,ADCA,≤ 0.25
11,RPMN,≤ 0.25
12,WIVP,≤ 0.25
13,TFNC,2.85
14,HFSG,≤ 0.25
15,VLCE,≤ 0.25
16,YKWM,≤ 0.25
17,FNWQ,≤ 0.25
18,YDVV,≤ 0.25
19,TGPI,≤ 0.25
20,LMQG,≤ 0.25
21,NDHA,≤ 0.25
22,FHEP,≤ 0.25
23,SNGY,12.6
24,DSFP,0.618

row,Variant,enrichment ratio
1,TMVN,≤ 0.25
2,ESYV,≤ 0.25
3,SEPI,≤ 0.25
4,QRAY,≤ 0.25
5,HMLS,≤ 0.25
6,WQDV,≤ 0.25
7,QYNV,≤ 0.25
8,HYVG,≤ 0.25
9,QTEF,≤ 0.25
10,EITR,≤ 0.25
11,NSPL,≤ 0.25
12,IGQG,≤ 0.25
13,HMWY,≤ 0.25
14,VTCI,1.04
15,ATRG,≤ 0.25
16,RLLE,0.261
17,FWTC,≤ 0.25
18,RNER,≤ 0.25
19,HSKQ,≤ 0.25
20,QYRE,≤ 0.25
21,HTHP,≤ 0.25
22,YTAV,≤ 0.25
23,DKVC,≤ 0.25
24,LRML,≤ 0.25

row,Variant,enrichment ratio
1,KKTK,≤ 0.25
2,INLQ,≤ 0.25
3,AYPF,≤ 0.25
4,TNYT,≤ 0.25
5,EASN,≤ 0.25
6,SPQY,≤ 0.25
7,NPIS,≤ 0.25
8,KPKF,≤ 0.25
9,HPSV,≤ 0.25
10,DSWT,≤ 0.25
11,PNGL,≤ 0.25
12,YNFH,≤ 0.25
13,MMWQ,≤ 0.25
14,AENN,≤ 0.25
15,PGPI,≤ 0.25
16,PWSV,≤ 0.25
17,YGGE,≤ 0.25
18,MMVK,≤ 0.25
19,DIVL,≤ 0.25
20,RWAS,≤ 0.25
21,EPFT,≤ 0.25
22,TAKQ,≤ 0.25
23,NVRG,≤ 0.25
24,HIWY,≤ 0.25

row,Variant,enrichment ratio
1,RQGE,≤ 0.25
2,VCLF,0.991
3,KKSN,≤ 0.25
4,VVQR,≤ 0.25
5,NSNF,≤ 0.25
6,WIGW,≤ 0.25
7,YICH,≤ 0.25
8,WCHA,≤ 0.25
9,FNFD,≤ 0.25
10,IPDH,≤ 0.25
11,LDGW,≤ 0.25
12,IVWH,≤ 0.25
13,VHHF,≤ 0.25
14,ITGE,≤ 0.25
15,QEVG,≤ 0.25
16,QDQY,≤ 0.25
17,LCEM,≤ 0.25
18,FCWW,≤ 0.25
19,WKIR,≤ 0.25
20,DWSK,≤ 0.25
21,DWTG,≤ 0.25
22,SNEA,≤ 0.25
23,RTPE,≤ 0.25
24,KPRP,≤ 0.25

row,Variant,enrichment ratio
1,EFDQ,≤ 0.25
2,FTWM,≤ 0.25
3,MGAR,≤ 0.25
4,PVKR,≤ 0.25
5,IGQE,≤ 0.25
6,TYRA,≤ 0.25
7,ELGA,≤ 0.25
8,ATCQ,3.89
9,STKS,≤ 0.25
10,SGWI,2.76
11,QNPC,≤ 0.25
12,CPPL,≤ 0.25
13,ADNH,≤ 0.25
14,REIY,≤ 0.25
15,APDT,≤ 0.25
16,VGDY,≤ 0.25
17,ITTN,≤ 0.25
18,EVYH,≤ 0.25
19,RHFL,≤ 0.25
20,WVID,≤ 0.25
21,RNID,≤ 0.25
22,QIWF,≤ 0.25
23,NSHP,≤ 0.25
24,VGEA,≤ 0.25

row,Variant,enrichment ratio
1,HVTL,≤ 0.25
2,PFLN,≤ 0.25
3,IATG,≤ 0.25
4,GVAN,≤ 0.25
5,PERE,≤ 0.25
6,MVRN,≤ 0.25
7,GLKM,≤ 0.25
8,VEGM,≤ 0.25
9,LLCL,≤ 0.25
10,NGDQ,≤ 0.25
11,IKDF,≤ 0.25
12,TDKR,≤ 0.25
13,YKLD,≤ 0.25
14,WHYF,≤ 0.25
15,HGLH,1.59
16,VREC,≤ 0.25
17,IHKW,≤ 0.25
18,KGAK,≤ 0.25
19,YPNY,≤ 0.25
20,TKMH,0.291
21,QLAM,≤ 0.25
22,RCMI,≤ 0.25
23,MYKM,≤ 0.25
24,VCWD,≤ 0.25

row,Variant,enrichment ratio
1,WGFA,≤ 0.25
2,KGIL,≤ 0.25
3,SLED,≤ 0.25
4,PWEF,≤ 0.25
5,FKQF,≤ 0.25
6,TSMN,12.3
7,FLEL,≤ 0.25
8,RDVP,≤ 0.25
9,FWHK,≤ 0.25
10,PWRP,≤ 0.25
11,GICS,11.2
12,KKLT,≤ 0.25
13,PDHP,≤ 0.25
14,SVLN,7.1
15,VDCY,≤ 0.25
16,HHAI,≤ 0.25
17,HWYN,≤ 0.25
18,MHND,≤ 0.25
